The list shows a part of the results. The list includes weakly bound sequences.
Each sequence was assayed against T1, MBP-FoxP3dN (UniProt Q99JB6) (assay: PD-seq (MBP pull-down with sequencing)). Settings: 20 mM Tris-HCl pH 7.5, 100 mM NaCl, 1.5 mM MgCl2, 0.4 uM protein, 0.1 uM dsDNA library, 30 min, room temperature, amylose pull-down; high values mean tight binding; double strand, one strand shown.
T1 sequence: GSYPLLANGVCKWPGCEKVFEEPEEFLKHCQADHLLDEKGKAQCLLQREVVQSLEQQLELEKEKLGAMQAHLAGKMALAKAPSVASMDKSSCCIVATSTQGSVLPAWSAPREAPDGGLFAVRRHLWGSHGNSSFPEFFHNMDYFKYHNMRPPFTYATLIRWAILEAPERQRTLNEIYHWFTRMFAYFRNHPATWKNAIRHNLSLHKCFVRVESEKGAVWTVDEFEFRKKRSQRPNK

Sequence | binding signal (RPM ratio (pull-down/input))
GATGATTGTTCTCCCAGCTGATGAATTGTAATTGTCGAGTAAACAAATTTTCCTAATCTTTCTGTTCAAGCGCCATCTAC | 2.31
GATGATTGTTCTCCCAGCTGATGAATTGGGAGCGTCGAGTAAACAAATTTTCCTAATCTTTCTGTTCAAGCGCCATCTAC | 0.449
GATGATTGTTCTCCCAGCTGATGAATTCAGAGATTCGAGTAAACAAATTTTCCTAATCTTTCTGTTCAAGCGCCATCTAC | 0.313
GATGATTGTTCTCCCAGCTGATGAATTGACGCGCTCGAGTAAACAAATTTTCCTAATCTTTCTGTTCAAGCGCCATCTAC | 0.836
GATGATTGTTCTCCCAGCTGATGAATTATAAACATCGAGTAAACAAATTTTCCTAATCTTTCTGTTCAAGCGCCATCTAC | 2.69
GATGATTGTTCTCCCAGCTGATGAATTGTTGGCCTCGAGTAAACAAATTTTCCTAATCTTTCTGTTCAAGCGCCATCTAC | 2.11
GATGATTGTTCTCCCAGCTGATGAATTTTCCTCATCGAGTAAACAAATTTTCCTAATCTTTCTGTTCAAGCGCCATCTAC | 0.224
GATGATTGTTCTCCCAGCTGATGAATTGGAAACCTCGAGTAAACAAATTTTCCTAATCTTTCTGTTCAAGCGCCATCTAC | 0.23
GATGATTGTTCTCCCAGCTGATGAATTGCAATCGTCGAGTAAACAAATTTTCCTAATCTTTCTGTTCAAGCGCCATCTAC | 1.72
GATGATTGTTCTCCCAGCTGATGAATTACATAATTCGAGTAAACAAATTTTCCTAATCTTTCTGTTCAAGCGCCATCTAC | 0.49
GATGATTGTTCTCCCAGCTGATGAATTAAACAAGTCGAGTAAACAAATTTTCCTAATCTTTCTGTTCAAGCGCCATCTAC | 0.682
GATGATTGTTCTCCCAGCTGATGAATTACAATAGTCGAGTAAACAAATTTTCCTAATCTTTCTGTTCAAGCGCCATCTAC | 0.704
GATGATTGTTCTCCCAGCTGATGAATTATTTCTGTCGAGTAAACAAATTTTCCTAATCTTTCTGTTCAAGCGCCATCTAC | 0.335
GATGATTGTTCTCCCAGCTGATGAATTTTTCGGATCGAGTAAACAAATTTTCCTAATCTTTCTGTTCAAGCGCCATCTAC | 0.156
GATGATTGTTCTCCCAGCTGATGAATTCGGCGAATCGAGTAAACAAATTTTCCTAATCTTTCTGTTCAAGCGCCATCTAC | 0.281
GATGATTGTTCTCCCAGCTGATGAATTTACTGGGTCGAGTAAACAAATTTTCCTAATCTTTCTGTTCAAGCGCCATCTAC | 0.463
GATGATTGTTCTCCCAGCTGATGAATTATGAAACTCGAGTAAACAAATTTTCCTAATCTTTCTGTTCAAGCGCCATCTAC | 0.828
GATGATTGTTCTCCCAGCTGATGAATTGCGTCCGTCGAGTAAACAAATTTTCCTAATCTTTCTGTTCAAGCGCCATCTAC | 0.931
GATGATTGTTCTCCCAGCTGATGAATTGTCGTGTTCGAGTAAACAAATTTTCCTAATCTTTCTGTTCAAGCGCCATCTAC | 0.915
GATGATTGTTCTCCCAGCTGATGAATTTTGAAGATCGAGTAAACAAATTTTCCTAATCTTTCTGTTCAAGCGCCATCTAC | 0.254

Sequence | binding signal (RPM ratio (pull-down/input))
GATGATTGTTCTCCCAGCTGATGAATTATGGACGTCGAGTAAACAAATTTTCCTAATCTTTCTGTTCAAGCGCCATCTAC | 0.392
GATGATTGTTCTCCCAGCTGATGAATTCTTCTTCTCGAGTAAACAAATTTTCCTAATCTTTCTGTTCAAGCGCCATCTAC | 0.275
GATGATTGTTCTCCCAGCTGATGAATTACGTGCGTCGAGTAAACAAATTTTCCTAATCTTTCTGTTCAAGCGCCATCTAC | 0.843
GATGATTGTTCTCCCAGCTGATGAATTTACGCTATCGAGTAAACAAATTTTCCTAATCTTTCTGTTCAAGCGCCATCTAC | 1.1
GATGATTGTTCTCCCAGCTGATGAATTATGCACGTCGAGTAAACAAATTTTCCTAATCTTTCTGTTCAAGCGCCATCTAC | 3.08
GATGATTGTTCTCCCAGCTGATGAATTAGAGTCATCGAGTAAACAAATTTTCCTAATCTTTCTGTTCAAGCGCCATCTAC | 0.569
GATGATTGTTCTCCCAGCTGATGAATTTAGTGCATCGAGTAAACAAATTTTCCTAATCTTTCTGTTCAAGCGCCATCTAC | 1.99
GATGATTGTTCTCCCAGCTGATGAATTCGACCGATCGAGTAAACAAATTTTCCTAATCTTTCTGTTCAAGCGCCATCTAC | 0.227
GATGATTGTTCTCCCAGCTGATGAATTTTCCGATTCGAGTAAACAAATTTTCCTAATCTTTCTGTTCAAGCGCCATCTAC | 0.245
GATGATTGTTCTCCCAGCTGATGAATTACGATGTTCGAGTAAACAAATTTTCCTAATCTTTCTGTTCAAGCGCCATCTAC | 1.56
GATGATTGTTCTCCCAGCTGATGAATTTGATGGTTCGAGTAAACAAATTTTCCTAATCTTTCTGTTCAAGCGCCATCTAC | 4.3
GATGATTGTTCTCCCAGCTGATGAATTCACTTTCTCGAGTAAACAAATTTTCCTAATCTTTCTGTTCAAGCGCCATCTAC | 0.392
GATGATTGTTCTCCCAGCTGATGAATTTCGGTTCTCGAGTAAACAAATTTTCCTAATCTTTCTGTTCAAGCGCCATCTAC | 0.886
GATGATTGTTCTCCCAGCTGATGAATTAACAATTTCGAGTAAACAAATTTTCCTAATCTTTCTGTTCAAGCGCCATCTAC | 0.559
GATGATTGTTCTCCCAGCTGATGAATTACTGATATCGAGTAAACAAATTTTCCTAATCTTTCTGTTCAAGCGCCATCTAC | 0.445
GATGATTGTTCTCCCAGCTGATGAATTGGGCCTCTCGAGTAAACAAATTTTCCTAATCTTTCTGTTCAAGCGCCATCTAC | 4.79
GATGATTGTTCTCCCAGCTGATGAATTGCGGAATTCGAGTAAACAAATTTTCCTAATCTTTCTGTTCAAGCGCCATCTAC | 1.24
GATGATTGTTCTCCCAGCTGATGAATTTATATACTCGAGTAAACAAATTTTCCTAATCTTTCTGTTCAAGCGCCATCTAC | 3.39
GATGATTGTTCTCCCAGCTGATGAATTCACAAATTCGAGTAAACAAATTTTCCTAATCTTTCTGTTCAAGCGCCATCTAC | 0.351
GATGATTGTTCTCCCAGCTGATGAATTTTGTTTATCGAGTAAACAAATTTTCCTAATCTTTCTGTTCAAGCGCCATCTAC | 7.19

Reference: article PMC12820563
